Test results as given in PubChem BioAssay AID1347071 (National Center for Advancing Translational Sciences (NCATS), 2019).
Screen size: about 410,000 compounds; about 260 (0.063%) were called active. Inconclusive results, whose numbers are uncertain, are shown with a selection of clear calls. Calls follow the shape of the dose curve; as a rule, active = well fitted activation curve with a large enough effect; inconclusive = small, poorly fitted or top-dose-only effect; inactive = no such curve, though single readings can be large or run the other way. Potencies of inconclusive entries are left out as doubtful fits.
Potency is read from the fitted curve at half-maximal effect; tags tell the direction and shape of the fitted curve.

Assay: qHTS for compounds that reverse cellular toxicity of Amyloid beta (A-beta) peptide in yeast: Primary Screen; also: nearly all actives have a fitted effect of over 55% in size
Conditions: yeast expressing A-beta42, growth rescue, OD600, 48 h; growth rescue: at 46.1 µM (top of the series), 0% DMSO, 100% iron-clioquinol control
Outline: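 Yeast growth medium received pinned compounds, then yeast cells expressing toxic A-beta were added; plates incubated at 30 C for 48 hr. Growth read as absorbance at 600 nm, normalized to DMSO and equimolar FeCl3 plus clioquinol controls.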
For `Cc1ccc2nc(NC(=O)CSc3nccn3Cc3ccccc3)sc2c1`, the Potency was inconclusive [activator, single point].
For `O=C(NCc1nnc(SCc2ccccc2)n1-c1ccc(F)cc1)C12CC3CC(CC(C3)C1)C2`, the Potency was inconclusive [activator, partial curve, poor fit].
In the case of `CCN(CC)CCOc1ccc2c(c1)C(=NNC(=O)c1ccccn1)c1cc(OCCN(CC)CC)ccc1-2`, the Potency is reported as inconclusive [activator, single point].
For `COc1ccc(CCNC(=S)Nc2ccc(OC)cc2)cc1`, the Potency was inconclusive [activator, single point].
In the case of `C[C@@H]1CCC[C@H](C)N1NC(=O)c1ccc(Cl)c(S(N)(=O)=O)c1`, the growth rescue is reported as inconclusive: -9.82% [activator].
In the case of `O=C(COc1ccccc1F)Nc1ccc(Cl)c(-c2nc3ccccc3[nH]2)c1`, the “growth rescue” value is reported as inactive: 10.1%.
In the case of `Cc1cccc(C)c1N1CCN(C(=O)N2CCOCC2)CC1`, the Potency is reported as inconclusive [activator, partial curve, poor fit].
In the case of `Cn1nc(-c2ccc(Cl)cc2)c2cc(C(=O)N3CCOCC3)sc21`, the Potency is reported as inconclusive [activator, single point].
In the case of `O=C1NC[C@H](Cc2ccc(O)cc2)N(C[C@@H]2CCCN2C[C@H](Cc2ccc(O)cc2)N2C[C@H](Cc3ccccc3)N(CC3CCCCCC3)C(=O)C2=O)C1=O`, the “growth rescue” value is reported as inactive: -3.55%.
For `COc1ccc(NC(=S)/N=C(\N)Nc2nc(C)c3ccccc3n2)cc1`, the Potency was inconclusive [activator, partial curve, poor fit].
With `S=C(NCC1(c2ccccc2)CCCC1)Nc1ccccc1` the Potency was active: 5.01 µM.
In the case of `Cc1cc(C)cc(NC(=O)Nc2cccs2)c1`, the “growth rescue” value is reported as inactive: -13.4%.
With `CCc1nnc(NC(=O)CSc2nnc(CNC(=O)c3cc(OC)c(OC)c(OC)c3)o2)s1` the Potency was inconclusive [activator, partial curve, poor fit].
For `O=C(NCc1ccccc1Cl)c1ccc(-c2ccccc2)cc1`, the Potency was inconclusive [activator, partial curve].
With `COc1cc(/C=N/NC(=S)NC2CC3C=CC2C3)cc(OC)c1OC` (stereo unspecified) the Potency was inconclusive [activator, partial curve, poor fit].
For `COc1ccc(NC(=O)CSC2=C(C#N)C(c3ccco3)C(C(=O)Nc3nc4ccccc4s3)=C(C)N2)cc1` (stereo unspecified), the “growth rescue” value was inactive: 6.94%.
In the case of `S=C(N/N=C1\CCc2ccccc21)NC1CCCCC1`, the Potency is reported as inconclusive [activator, partial curve].
For `COc1ccc([N+](=O)[O-])cc1NC(=O)c1ccc(CN(c2ccccc2)S(C)(=O)=O)cc1`, the Potency was inconclusive [activator, single point].
In the case of `CCN(C(=O)C1CCN(c2nc(-c3ccc(OC)cc3)no2)CC1)c1ccc(OC)cc1`, the Potency is reported as inconclusive [activator, partial curve, poor fit].
In the case of `CCOC(=O)Cc1csc(NC(=O)COc2ccc3ccccc3c2)n1`, the Potency is reported as inconclusive [activator, full curve, poor fit].
With `O=C(COC(=O)C1(c2ccc(F)cc2)CCCC1)N1CCc2ccccc21` the Potency was inconclusive [activator, single point].
For `S=C(Nc1ccc(Oc2ccccc2)cc1)N1CCOCC1`, the Potency was inconclusive [activator, single point].
For `CC(C)C(=O)Nc1ncc(Cc2ccc(Cl)cc2)s1`, the Potency was inconclusive [activator, partial curve, poor fit].
With `CSCCC1C(=O)OC2(C)CC(C)(C)NC(=S)N12` (stereo unspecified) the Potency was inconclusive [activator, single point].
For `S=C(Nc1ccccc1Cl)N(Cc1ccccc1)Cc1ccccn1`, the Potency was inconclusive [activator, single point].
With `CN(C(=O)c1cc2c(cc1Br)OCO2)c1cccc2ccccc12` the “growth rescue” value was inactive: 0%.
In the case of `CCn1c(=O)c2sccc2n2c(CCCC(=O)N3CCN(c4ccccc4OC)CC3)nnc12`, the “growth rescue” value is reported as inactive: 6.31%.
With `O=C(/C=N/O)Nc1ccc2sc3ccccc3c2c1` the “growth rescue” value was inactive: -7.16%.
For `FC(F)(F)c1ccc(CN2C[C@@H]3C(c4ccc(C(F)(F)F)cc4)C4(c5cccnc5)CC3(C4)[C@H]2c2ccccc2)cc1` (stereo partly specified), the Potency was inconclusive [activator, partial curve, poor fit].
For `CC(Cc1cccs1)NC(=S)Nc1ccccc1` (stereo unspecified), the Potency was active: 11.2 µM.
In the case of `COc1cccc(OCCn2cc(C(=O)c3ccco3)c3ccccc32)c1`, the Potency is reported as inconclusive [activator, partial curve, poor fit].
In the case of `CCCCCCCCN1C(=O)[C@H](CC(=O)NCC2CCCCC2)C[C@@]2(C(=O)OCC)CCCC=C12`, the “growth rescue” value is reported as inactive: -3.89%.
For `CC1O[C@@H](OCC2O[C@@H](Oc3cc(O)c4c(c3)OC(c3ccc(O)cc3)CC4=O)[C@H](O)[C@@H](O)[C@@H]2O)[C@H](O)[C@H](O)[C@H]1O` (stereo partly specified), the Potency was inconclusive [activator, single point].
In the case of `Cc1cc(NC(=O)c2ccc(Br)c(S(=O)(=O)N3CCCC3)c2)no1`, the “growth rescue” value is reported as inactive: 22.8%.
With `COc1ccc(CN(C)C(=S)Nc2ccc(Cl)cc2Cl)cc1` the Potency was inconclusive [activator, partial curve, poor fit].
For `Cc1cccc(Nc2ccc(C(=O)O)cc2[N+](=O)[O-])c1C`, the Potency was inconclusive [activator, full curve, poor fit].
In the case of `CCOC(=O)[C@H]1[C@H]2COc3ccc(Br)cc3[C@@H]2N2C(=O)c3cc(Br)ccc3NC(=O)[C@@]12C`, the Potency is reported as inconclusive [activator, partial curve, poor fit].
For `C/C(=N/Oc1nc(C)cc(C)n1)c1ccc(Cl)cc1Cl`, the Potency was inconclusive [activator, single point].
For `O=C(Nc1ccc(NC(=O)c2ccc(Br)cc2)c(Cl)c1)c1ccc(Br)cc1`, the “growth rescue” value was inactive: 1.15%.
With `CC(NC(=S)NC1CCC(C(C)(C)C)CC1)c1ccccc1` (stereo unspecified) the Potency was inconclusive [activator, full curve, poor fit].
In the case of `CC(C)n1c(COc2ccccc2)nc2ccccc21`, the Potency is reported as inconclusive [activator, single point].
With `c1ccc(Oc2cccc(OCCn3cncn3)c2)cc1` the Potency was inconclusive [activator, single point].
In the case of `COc1cccc2c(N/N=C/c3ccccc3)cc(C)nc12`, the Potency is reported as inconclusive [activator, partial curve, poor fit].
With `COc1ccc(N2CCN(CC(O)COc3ccc(C(C)C)c(C)c3)CC2)cc1` (stereo unspecified) the “growth rescue” value was inactive: -13.3%.
For `Cc1ccc(C)c(N=C2CCCN2Cc2ccccc2)c1C#N`, the growth rescue was inconclusive: -27.6% [activator].
With `CCOCC(=O)Nc1cc(C(F)(F)F)ccc1Oc1cccc(Br)c1` the Potency was inconclusive [activator, full curve].
In the case of `CCCCNC(=O)CNC(=S)N(Cc1ccccc1F)C1CCCCC1`, the Potency is reported as inconclusive [activator, single point].
With `CCOc1ccc(OCC(=O)N2CCC3(CC2)CC(=O)c2ccccc2O3)cc1` the Potency was inconclusive [activator, partial curve, poor fit].
For `C[C@@]12C(=O)N(Cc3ccco3)CC(=O)N1[C@H]1c3cc(Cl)ccc3OC[C@@H]1[C@@H]2c1ccccc1`, the Potency was inconclusive [activator, single point].
With `COc1cc(/C=C/c2nc3ccccc3c(=O)[nH]2)cc(OC)c1OC` the Potency was inconclusive [activator, partial curve, poor fit].
In the case of `Cc1ccccc1OCC(=O)NNC(=O)c1ccc(-c2ccccc2)cc1`, the “growth rescue” value is reported as inactive: -19.7%.
In the case of `Cc1c(NC(=O)C(C)c2ccc(CC(C)C)cc2)c(=O)n(-c2ccccc2)n1C` (stereo unspecified), the “growth rescue” value is reported as inactive: 19.4%.
In the case of `Cc1cccc(NC(=O)c2ccc(F)c(S(=O)(=O)N3CCN(c4ccc(F)cc4)CC3)c2)c1`, the Potency is reported as inconclusive [activator, full curve].
With `Cn1c(Cn2nnc(-c3ccccc3)n2)nnc1SCc1ccccc1Cl` the Potency was inconclusive [activator, single point].
In the case of `O=C(O)c1[nH]c2ccc([N+](=O)[O-])cc2c1-c1ccccc1`, the Potency is reported as inconclusive [activator, single point].
For `CCOC(=O)[C@]12CCCC=C1N(Cc1cccc3ccccc13)C(=O)[C@H](CC(=O)N1CCCCC1)C2`, the “growth rescue” value was inactive: -1.64%.
In the case of `COCCCn1c(=O)/c(=C\c2ccccc2OC(F)F)s/c1=C(/C#N)C(=O)NCCOC`, the “growth rescue” value is reported as inactive: -2.97%.
With `COc1ccc([C@H]2CC(=O)C=C(c3cc(Cl)ccc3C)C2)cc1` the Potency was inconclusive [activator, partial curve, poor fit].
For `CN(C(=O)c1ccc(Cl)cc1)c1ccc(OCC(=O)Nc2cc(C(=O)O)ccc2Cl)cc1`, the “growth rescue” value was inactive: 0.59%.
With `COC(=O)C1CN(C(=O)COc2cc(C)c(Cl)c(C)c2)c2ccccc2O1` (stereo unspecified) the Potency was inconclusive [activator, partial curve, poor fit].
In the case of `O=C(CCN1C(=O)c2ccccc2C1=O)Nc1ccccn1`, the “growth rescue” value is reported as inactive: -23.8%.
With `CC1CCc2nc(NC(=O)Cc3ccc(Cl)cc3)sc2C1` (stereo unspecified) the Potency was inconclusive [activator, single point].
For `Cc1nc(NC(=S)Nc2ccccc2)sc1C`, the Potency was active: 11.2 µM.
In the case of `Cc1cc(C)cc(NC(=O)c2cc3c(=O)n(Cc4ccco4)ccc3nc2C)c1`, the “growth rescue” value is reported as inactive: -4.89%.
In the case of `Cc1ccc(S(=O)(=O)N2CCCCC2)cc1C(=O)Nc1ccc(S(=O)(=O)Nc2ncccn2)cc1`, the “growth rescue” value is reported as inactive: 0.0871%.
For `Cc1ccccc1Nc1nc2ccccc2s1`, the “growth rescue” value was inactive: 17.5%.
